Enrichment ratio data for 153 variants are collected here from a collection of fitness landscapes (doi:10.1126/science.1257360).

First the molecules themselves.
B1: PhoQ; a variant is named by its letters at X, in order, P23837 (parent)
chain: MKKLLRLFFPLSLRVRFLLATAAVVLVLSLAYGMVALIGYSVSFDKTTFRLLRGESNLFYTLAKWENNKLHVELPENIDKQSPTMTLIYDENGQLLWAQRDVPWLMKMIQPDWLKSNGFHEIEADVNDTSLLLSGDHSIQQQLQEVREDDDDAEMTHSVAVNVYPATSRMPKLTIVVVDTIPVELKSSYMVWSWFIYVLSANLLLVIPLLWVAAWWSLRPIEALAKEVRELEEHNRELLNPATTRELTSLVRNLNRLLKSERERYDKYRTTLTDLTHSLKTPLXXLQXXLRSLRSEKMSVSDAEPVMLEQISRISQQIGYYLHRASMRGGTLLSRELHPVAPLLDNLTSALNKVYQRKGVNISLDISPEISFVGEQNDFVEVMGNVLDNACKYCLEFVEISARQTDEHLYIVVEDDGPGIPLSKREVIFDRGQRVDTLRPGQGVGLAVAREITEQYEGKIVAGESMLGGARMEVIFGRQHSAPKDE

Some of the results follow.

In the assay the parent is B1. Description: enrichment ratio after two sorts for PhoP signalling (ratio (wild type AVST 3.29)); higher = more functional. The note with it: with PhoP (E. coli).
Regarding LFTE, the enrichment ratio was ≤ 0.25.
FWII: the enrichment ratio is ≤ 0.25.
To SCPQ belongs ≤ 0.25.
The value for LLVM was ≤ 0.25.
To STRA belongs ≤ 0.25.
As for EFKL, the enrichment ratio is ≤ 0.25.
To DYSE belongs ≤ 0.25; to EQCE, ≤ 0.25.
On to DSVC, for which the enrichment ratio was ≤ 0.25.
Regarding NMQN, the enrichment ratio was ≤ 0.25.
The value for DPQL was ≤ 0.25; that for VQSR was ≤ 0.25; that for NWHC was ≤ 0.25.
To NWWM belongs ≤ 0.25; to CFLV, ≤ 0.25; to LNFT, ≤ 0.25.
As for YHAW, the enrichment ratio was ≤ 0.25.
With TQAD, the enrichment ratio is 11.6.
To TGGK belongs ≤ 0.25; to QKHQ, ≤ 0.25.
The value for KASA was ≤ 0.25; that for SSCL was 18.7; that for IMHR was ≤ 0.25.
The value for WFGN was ≤ 0.25.
Take AILG: the enrichment ratio is 15.7.
To GHGE belongs ≤ 0.25; to AQNK, ≤ 0.25; to RFLL, ≤ 0.25.
To PKDH belongs ≤ 0.25; to WQMI, ≤ 0.25.
Consider QACT, for which the enrichment ratio is ≤ 0.25.
The value for MWAR was ≤ 0.25; that for WDTA was ≤ 0.25; that for YRSF was ≤ 0.25.
For IDRC, the enrichment ratio is ≤ 0.25.
To AVII belongs 2.36; to PSQM, ≤ 0.25.
To ACFH belongs ≤ 0.25; to MECP, ≤ 0.25.
Take FPHF: the enrichment ratio is ≤ 0.25.
The value for AFGM was ≤ 0.25; that for HPKK was ≤ 0.25; that for AKGE was ≤ 0.25.
To WNYT belongs ≤ 0.25.
Regarding HHEM, the enrichment ratio is ≤ 0.25.
To KCYK belongs ≤ 0.25; to NQCD, ≤ 0.25; to EFRH, ≤ 0.25.
With GWEL, the enrichment ratio was ≤ 0.25.
The value for PEKN was ≤ 0.25; that for EIRS was ≤ 0.25.
With RLTR, the enrichment ratio was ≤ 0.25.
To FYLI belongs ≤ 0.25.
PIAK: the enrichment ratio is ≤ 0.25.
The value for TKRT was ≤ 0.25.
Regarding SDNQ, the enrichment ratio was ≤ 0.25.
The value for TKTM was 2.79; that for ENTT was ≤ 0.25; that for ASII was 12.7.
The value for FENC was ≤ 0.25.
The value for LMSF was ≤ 0.25.
Take HQPR: the enrichment ratio is ≤ 0.25.
AAFR: the enrichment ratio is ≤ 0.25.
The value for IHSF was ≤ 0.25; that for VRYN was ≤ 0.25; that for GKHV was ≤ 0.25.
With LQCP, the enrichment ratio is ≤ 0.25.
As for HEYQ, the enrichment ratio was ≤ 0.25.
The value for IECC was 11.9; that for TDRM was ≤ 0.25; that for SDLA was 1.18.
To KDDT belongs ≤ 0.25; to KAYE, ≤ 0.25; to WSNP, ≤ 0.25.
To HLDK belongs ≤ 0.25; to TELI, 19.5; to GNKF, ≤ 0.25.
Turning to EVRA, the enrichment ratio is ≤ 0.25.
To QEKT belongs ≤ 0.25; to QRDG, ≤ 0.25.
To VKMH belongs ≤ 0.25; to TSYN, 1.56.
As to FTVN, the enrichment ratio was ≤ 0.25.
To DGQI belongs ≤ 0.25; to RLGH, ≤ 0.25.
To VSVK belongs ≤ 0.25.
The value for GPWT was ≤ 0.25.
For the variant HHCD, the enrichment ratio is ≤ 0.25.
The value for RLRC was ≤ 0.25.
On to NLAG, for which the enrichment ratio was ≤ 0.25.
To YIVP belongs ≤ 0.25; to PFSD, ≤ 0.25.
The value for VYPH was ≤ 0.25.
The value for AGLS was 13.8; that for LCYP was ≤ 0.25.
Consider TFET, for which the enrichment ratio was ≤ 0.25.
To MMWL belongs ≤ 0.25.
The value for QYNS was ≤ 0.25; that for FAFE was ≤ 0.25.
On to DQEG, for which the enrichment ratio is ≤ 0.25.
The value for ARIW was ≤ 0.25; that for ATTA was ≤ 0.25.
The value for HTLE was ≤ 0.25.
Consider KKDS, for which the enrichment ratio is ≤ 0.25.
The value for PTRI was ≤ 0.25; that for NFPK was ≤ 0.25; that for ARYE was ≤ 0.25.
With VYSF, the enrichment ratio is ≤ 0.25.
To KHCH belongs ≤ 0.25.
To LYMP belongs ≤ 0.25; to QVGY, ≤ 0.25; to LKIR, ≤ 0.25.
To AIST belongs 6.85; to DTCV, ≤ 0.25.
Consider IPNN, for which the enrichment ratio is ≤ 0.25.
In the case of LHNR, the enrichment ratio was ≤ 0.25.
The value for DMRC was ≤ 0.25; that for VISG was ≤ 0.25.
For the variant TRTY, the enrichment ratio is ≤ 0.25.
Turning to SART, the enrichment ratio is ≤ 0.25.
To AEVV belongs 14.7.
On to WNCH, for which the enrichment ratio is ≤ 0.25.
To IIIK belongs ≤ 0.25; to IGES, ≤ 0.25; to TSWS, 9.6.
Regarding NSCL, the enrichment ratio is ≤ 0.25.
ANSR: the enrichment ratio was ≤ 0.25.
To LQDF belongs ≤ 0.25; to NFAW, ≤ 0.25; to KMYD, ≤ 0.25.
On to SWVN, for which the enrichment ratio was ≤ 0.25.
Turning to PSDM, the enrichment ratio was ≤ 0.25.
The value for KGAH was ≤ 0.25; that for ENLT was ≤ 0.25; that for DLYI was ≤ 0.25.
To TSYD belongs ≤ 0.25.
The value for PCDQ was ≤ 0.25; that for GSEN was ≤ 0.25.
Consider DYFY, for which the enrichment ratio was ≤ 0.25.
To ERYS belongs ≤ 0.25; to HPCG, ≤ 0.25; to SITW, 4.
To KEFC belongs ≤ 0.25.
The value for NVFP was ≤ 0.25; that for YAES was ≤ 0.25.
Consider IYCY, for which the enrichment ratio was ≤ 0.25.
To KILE belongs ≤ 0.25; to GHHT, ≤ 0.25.
The value for VCKN was ≤ 0.25.
As to GENA, the enrichment ratio was ≤ 0.25.
The value for INGY was ≤ 0.25.
The value for STTC was 5.19; that for NAPN was ≤ 0.25.
